# ± gives the standard deviation of the averaged measurements. In all, about 33,000 sequences were measured (“E-score (dimensionless, -0.5 to 0.5)”: median about -0.046, highest 2% from about 0.36 on). The list shows a part of the results.
# System: T1, SpTbr T-box DNA-binding domain (GST fusion)
# T1 sequence: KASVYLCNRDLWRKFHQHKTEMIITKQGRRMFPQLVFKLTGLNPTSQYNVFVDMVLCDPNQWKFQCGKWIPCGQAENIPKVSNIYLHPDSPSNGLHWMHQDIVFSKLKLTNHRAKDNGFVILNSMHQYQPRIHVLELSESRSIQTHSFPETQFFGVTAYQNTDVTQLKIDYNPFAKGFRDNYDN
# Assay: PBM E-score of 8-mer (E-score (dimensionless, -0.5 to 0.5)); Tbr is Tbrain of the sea star Patiria miniata (Pm) or the sea urchin Strongylocentrotus purpuratus (Sp); higher = stronger binding preference; most listed sequences are background and not binding sites
# Conditions: the construct has about 5 more residues each side
# Outline: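 Each ungapped 8-mer received an enrichment E-score from the Universal PBM Analysis Suite, averaged over duplicate arrays. The proteins were Tbr T-box DNA-binding domains, covering the whole T-box plus about five flanking residues, fused to GST and expressed in BL21 E. coli at 20 °C before glutathione affinity purification. Universal Agilent oligonucleotide arrays were made double-stranded by primer extension and incubated with 200 nM protein in PBS (pH 7.5). The arrays were then scanned and quantified, and every 8-mer was scored from probe intensities.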
row,Sequence,PBM E-score of 8-mer
1,AAACTGAA,-0.212 ± 0.088
2,ACGACCGG,-0.0699 ± 0.0036
3,AAGGGTTC,-0.299 ± 0.014
4,ACTTATTG,-0.0815 ± 0.036
5,ATTATGTG,0.167 ± 0.057
6,ATGTCGTC,-0.102 ± 0.031
7,ACTTCGCC,0.0093 ± 0.014
8,CGAGTTCA,0.11 ± 0.028
9,AAGGATAC,-0.168 ± 0.066
10,GGGCCTAA,-0.207 ± 0.025
11,CCTTTACA,0.175 ± 0.0068
12,CCACGATA,0.0254 ± 0.03
13,CTCTAATA,-0.254 ± 0.033
14,ACCTCGTG,0.232 ± 0.053
15,AACAGCCA,-0.0169 ± 0.0056
16,ATTGGAAC,0.0941 ± 0.034
17,AATGACCT,-0.138 ± 0.0092
18,CCATGGAA,-0.245 ± 0.031
19,GTGTGGAA,0.3848 ± 0.0012
20,CTCTGTTA,0.0595 ± 0.011
21,CTACATCA,-0.206 ± 0.057
22,TAGTATCA,-0.00415 ± 0.065
23,AGGTGATG,0.3942 ± 0.0033
24,GAAAGGAA,-0.0545 ± 0.007
25,GCACTGTA,-0.0342 ± 0.082

row,Sequence,PBM E-score of 8-mer
1,CTGACCAG,-0.318 ± 0.053
2,ATAGACGG,-0.24 ± 0.083
3,AGCGAGAG,-0.00466 ± 0.01
4,AGTAGAGG,-0.105 ± 0.033
5,TAACTGTA,-0.1508 ± 0.00041
6,AGTTACGC,-0.0254 ± 0.033
7,GCCACGAC,-0.0111 ± 0.15
8,AGCCCGCT,-0.12 ± 0.019
9,CGACCATA,-0.0314 ± 0.02
10,ATACGTCG,-0.164 ± 0.022
11,AAAGACAT,-0.233 ± 0.038
12,TACAAATA,-0.0446 ± 0.062
13,CGGACCAC,-0.101 ± 0.084
14,CATTTGTA,-0.134 ± 0.035
15,AAAGTTAC,-0.117 ± 0.021
16,AGGGGCAT,-0.28 ± 0.066
17,GGTATTAA,0.152 ± 0.016
18,AGACTGAG,-0.109 ± 0.0076
19,CGCCTGCA,0.142 ± 0.0054
20,ACGGACTG,-0.0424 ± 0.03
21,CGAACTAA,-0.0861 ± 0.0034
22,AAAAACCA,0.0254 ± 0.099
23,GGAAATCC,-0.0939 ± 0.033
24,GACGACGA,0.216 ± 0.032
25,GCGATAAC,0.274 ± 0.012

row,Sequence,PBM E-score of 8-mer
1,CATGTGAG,0.137 ± 0.0055
2,CCGTATGC,-0.198 ± 0.0088
3,GCGCGACC,0.313 ± 0.031
4,GTCCATGA,-0.00899 ± 0.0067
5,CAGAAGGA,-0.204 ± 0.051
6,AACCTAAG,-0.133 ± 0.0067
7,CAGTTAAA,-0.21132 ± 4.2e-05
8,AGCCCTCG,-0.177 ± 0.04
9,TTCTTAAA,-0.304 ± 0.023
10,AACAGATG,-0.0675 ± 0.042
11,CCCGCAAA,-0.0144 ± 0.072
12,AAACAAAA,-0.214 ± 0.023
13,TACCTAGA,-0.0331 ± 0.0053
14,AACTAGGG,0.0057 ± 0.046
15,ACAAAAAA,-0.00374 ± 0.084
16,CACTGTCA,0.251 ± 0.045
17,CTCGCCTA,0.0209 ± 0.021
18,CAGGAAAA,-0.0938 ± 0.024
19,CGCGAGAA,0.336 ± 0.0049
20,AAGGACTT,-0.195 ± 0.043
21,AGCCTCAT,-0.25 ± 0.066
22,ATCTCATC,-0.0635 ± 0.0016
23,CGAACCCA,-0.0453 ± 0.073
24,AAACTCTC,-0.0895 ± 0.034
25,CATGGTTA,-0.0854 ± 0.073

row,Sequence,PBM E-score of 8-mer
1,CTGTACGA,-0.26 ± 0.013
2,AGTGTGAG,0.4646 ± 0.0021
3,CAAATCCA,0.0313 ± 0.0085
4,CGCCACCG,0.229 ± 0.052
5,AAGGGTCT,-0.265 ± 0.036
6,CTTGGATA,0.0416 ± 0.036
7,ACCAGTAG,-0.2 ± 0.063
8,ATTGGCGA,0.196 ± 0.023
9,GTTTAGGA,-0.269 ± 0.026
10,AGAGCGGA,-0.143 ± 0.087
11,AATCACCT,0.191 ± 0.043
12,AGCAGAGC,-0.187 ± 0.024
13,AGGACGTC,-0.291 ± 0.05
14,ACAATGCC,-0.0739 ± 0.0018
15,ATAAAGGG,-0.344 ± 0.026
16,GCCTTGCA,-0.0115 ± 0.044
17,CCTCTAAA,-0.175 ± 0.013
18,AGCATCTC,-0.0319 ± 0.011
19,GCACAAAA,-0.0512 ± 0.072
20,CACCATCG,0.216 ± 0.076
21,ACCCTCTC,0.127 ± 0.037
22,CTCGCAAA,0.0785 ± 0.06
23,GTCCCTAA,-0.232 ± 0.0042
24,GACTGTAC,-0.365 ± 0.027
25,CCTGGGAA,-0.166 ± 0.026

row,Sequence,PBM E-score of 8-mer
1,CCGATTCG,-0.0806 ± 0.048
2,ACGGTCAA,-0.2 ± 0.056
3,AACGATAA,-0.0326 ± 0.026
4,CATTACGA,-0.123 ± 0.013
5,ATAACCCG,-0.0666 ± 0.085
6,CCTGATCA,-0.0124 ± 0.002
7,CGTCATCC,0.0133 ± 0.026
8,AAAGGATC,-0.196 ± 0.077
9,TCCGCACA,0.183 ± 0.0035
10,CGTGGCGA,0.161 ± 0.027
11,ATAAAAAA,-0.123 ± 0.0048
12,GGGTACTA,-0.202 ± 0.048
13,AACGTTAG,-0.0644 ± 0.047
14,CACTCCTA,-0.00656 ± 0.054
15,CTAAATTC,-0.0452 ± 0.035
16,CGGTTCAC,0.2389 ± 0.0012
17,GACTAAGA,-0.162 ± 0.034
18,AAGACGTA,0.0109 ± 0.054
19,AAGCGGAT,-0.0884 ± 0.045
20,ATGAGGTA,-0.108 ± 0.036
21,ATCAGTTA,-0.0237 ± 0.0075
22,CTTTTCTA,0.0261 ± 0.063
23,ACGATGAT,0.1041 ± 0.0003
24,AGGTGGAT,0.0851 ± 0.085
25,CTTCTAAA,-0.0563 ± 0.037

row,Sequence,PBM E-score of 8-mer
1,TAGACTGA,-0.134 ± 0.015
2,CGATCCAG,-0.109 ± 0.011
3,GTTCGGCA,-0.0944 ± 0.086
4,ACTCACCA,-0.0326 ± 0.014
5,ACGCTGAG,-0.115 ± 0.075
6,AAAATACC,-0.167 ± 0.056
7,AAGACCCC,-0.266 ± 0.084
8,TAATGGAA,-0.155 ± 0.11
9,CGAATCAC,0.131 ± 0.013
10,GTGTTCTA,0.212 ± 0.0066
11,ACGGCGTA,-0.0858 ± 0.0069
12,ATTTGAGA,-0.142 ± 0.022
13,AAGGAACC,-0.0244 ± 0.027
14,AAAAGTAT,-0.081 ± 0.047
15,AATCAACC,-0.0279 ± 0.024
16,AGAAGTGC,0.216 ± 0.0074
17,AGCAAGCT,-0.12 ± 0.04
18,CTAAGAGC,-0.295 ± 0.047
19,AACCTCGA,-0.0446 ± 0.051
20,AAGCCGAC,-0.0625 ± 0.085
21,AGGCCCAC,-0.16 ± 0.066
22,AACTTGGA,-0.121 ± 0.036
23,CCACCTCC,0.324 ± 0.0077
24,ACTTCCGA,0.0122 ± 0.091
25,CGTTCAGC,-0.0117 ± 0.011

row,Sequence,PBM E-score of 8-mer
1,GAATACGC,-0.0379 ± 0.024
2,ACCGTCAA,0.139 ± 0.029
3,AACCGCGA,0.296 ± 0.035
4,AGGGCGAC,0.148 ± 0.023
5,GGGATGAC,-0.0302 ± 0.028
6,CGTCATAG,-0.123 ± 0.043
7,GAACATAA,0.0406 ± 0.046
8,TCACCGCA,-0.0738 ± 0.0071
9,CCAGCTGG,-0.14 ± 0.062
10,GCCTAAAC,0.0814 ± 0.021
11,ATGGCCGA,-0.157 ± 0.0097
12,GGCGGCAA,0.165 ± 0.031
13,TCGGGTAA,-0.0376 ± 0.015
14,CGGCCTGC,-0.2 ± 0.11
15,AGCGCGTG,0.252 ± 0.038
16,GCGGAGAC,-0.0435 ± 0.032
17,AGTAGTGC,-0.147 ± 0.016
18,CGGAAGCC,-0.181 ± 0.12
19,GCAACATA,0.0557 ± 0.023
20,AGTGGCGA,0.345 ± 0.034
21,GTGTCTGA,0.284 ± 0.0085
22,GCGAAGAA,0.2909 ± 0.0029

# — the supplement of paper PMC4166925
